# Measurements reported in publication PMC12215968.
# Some entries of the source have several records that differ or are many. The other results are left out here. An entry can have further records. Some protein pairs were linked at several places, one record each.
# What was measured:
# Experiment in all cases: cross-linking mass spectrometry
# Conditions in all cases: TSTO, in cells
# CANX = CANX (UniProt P27824)
# CCT2 = CCT2 (UniProt P78371)
# CCT4 = CCT4 (UniProt P50991)
# TCP1 = TCP1 (UniProt P17987)
# CCT8 = CCT8 (UniProt P50990)
# EEF1D = EEF1D (UniProt P29692)
# H1-2 = H1-2 (UniProt P16403)
# MCM6 = MCM6 (UniProt Q14566)
# NEFM = NEFM (UniProt P07197)
# PHB2 = PHB2 (UniProt Q99623)
# RPL22 = RPL22 (UniProt P35268)
# RPS11 = RPS11 (UniProt P62280)
# SERBP1 = SERBP1 (UniProt Q8NC51)
# SMC4 = SMC4 (UniProt Q9NTJ3)
# SND1 = SND1 (UniProt Q7KZF4)
# SRP9 = SRP9 (UniProt P49458)
# STIP1 = STIP1 (UniProt P31948)
# XRCC5 = XRCC5 (UniProt P13010)
# YWHAZ = YWHAZ (UniProt P63104)
# Chain of UniProt P17987 (P17987 whole entry): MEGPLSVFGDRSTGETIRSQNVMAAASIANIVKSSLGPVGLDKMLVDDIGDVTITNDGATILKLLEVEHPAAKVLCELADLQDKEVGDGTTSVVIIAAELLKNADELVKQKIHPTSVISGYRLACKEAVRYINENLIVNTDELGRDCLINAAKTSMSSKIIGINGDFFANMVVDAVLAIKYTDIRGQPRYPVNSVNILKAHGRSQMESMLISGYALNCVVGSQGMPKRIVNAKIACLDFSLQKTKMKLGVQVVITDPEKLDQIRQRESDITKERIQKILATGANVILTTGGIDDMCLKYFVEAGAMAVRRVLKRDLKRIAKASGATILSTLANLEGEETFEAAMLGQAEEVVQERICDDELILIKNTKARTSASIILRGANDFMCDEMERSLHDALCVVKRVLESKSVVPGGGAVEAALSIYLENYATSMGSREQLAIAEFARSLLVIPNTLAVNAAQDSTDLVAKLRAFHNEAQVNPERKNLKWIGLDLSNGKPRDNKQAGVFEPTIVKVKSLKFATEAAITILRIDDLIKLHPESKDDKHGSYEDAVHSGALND
# Chain of XRCC6 (P12956 whole entry): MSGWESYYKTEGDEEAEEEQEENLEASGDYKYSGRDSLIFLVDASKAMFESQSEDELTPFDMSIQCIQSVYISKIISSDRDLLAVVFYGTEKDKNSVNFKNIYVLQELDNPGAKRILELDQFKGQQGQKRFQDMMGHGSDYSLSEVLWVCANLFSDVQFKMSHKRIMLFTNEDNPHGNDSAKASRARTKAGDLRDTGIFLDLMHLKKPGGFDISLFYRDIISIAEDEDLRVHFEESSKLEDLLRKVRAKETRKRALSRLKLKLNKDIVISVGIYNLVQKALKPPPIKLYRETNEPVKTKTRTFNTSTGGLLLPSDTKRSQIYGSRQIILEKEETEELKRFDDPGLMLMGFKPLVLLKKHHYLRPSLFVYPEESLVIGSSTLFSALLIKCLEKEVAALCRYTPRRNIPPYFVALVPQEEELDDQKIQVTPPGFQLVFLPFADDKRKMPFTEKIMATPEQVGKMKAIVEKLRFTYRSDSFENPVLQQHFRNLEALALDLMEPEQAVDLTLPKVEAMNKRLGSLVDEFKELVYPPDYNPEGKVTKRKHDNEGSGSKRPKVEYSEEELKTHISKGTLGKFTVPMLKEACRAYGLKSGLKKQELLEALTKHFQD
# Chain of UniProt Q9NTJ3 (Q9NTJ3 whole entry): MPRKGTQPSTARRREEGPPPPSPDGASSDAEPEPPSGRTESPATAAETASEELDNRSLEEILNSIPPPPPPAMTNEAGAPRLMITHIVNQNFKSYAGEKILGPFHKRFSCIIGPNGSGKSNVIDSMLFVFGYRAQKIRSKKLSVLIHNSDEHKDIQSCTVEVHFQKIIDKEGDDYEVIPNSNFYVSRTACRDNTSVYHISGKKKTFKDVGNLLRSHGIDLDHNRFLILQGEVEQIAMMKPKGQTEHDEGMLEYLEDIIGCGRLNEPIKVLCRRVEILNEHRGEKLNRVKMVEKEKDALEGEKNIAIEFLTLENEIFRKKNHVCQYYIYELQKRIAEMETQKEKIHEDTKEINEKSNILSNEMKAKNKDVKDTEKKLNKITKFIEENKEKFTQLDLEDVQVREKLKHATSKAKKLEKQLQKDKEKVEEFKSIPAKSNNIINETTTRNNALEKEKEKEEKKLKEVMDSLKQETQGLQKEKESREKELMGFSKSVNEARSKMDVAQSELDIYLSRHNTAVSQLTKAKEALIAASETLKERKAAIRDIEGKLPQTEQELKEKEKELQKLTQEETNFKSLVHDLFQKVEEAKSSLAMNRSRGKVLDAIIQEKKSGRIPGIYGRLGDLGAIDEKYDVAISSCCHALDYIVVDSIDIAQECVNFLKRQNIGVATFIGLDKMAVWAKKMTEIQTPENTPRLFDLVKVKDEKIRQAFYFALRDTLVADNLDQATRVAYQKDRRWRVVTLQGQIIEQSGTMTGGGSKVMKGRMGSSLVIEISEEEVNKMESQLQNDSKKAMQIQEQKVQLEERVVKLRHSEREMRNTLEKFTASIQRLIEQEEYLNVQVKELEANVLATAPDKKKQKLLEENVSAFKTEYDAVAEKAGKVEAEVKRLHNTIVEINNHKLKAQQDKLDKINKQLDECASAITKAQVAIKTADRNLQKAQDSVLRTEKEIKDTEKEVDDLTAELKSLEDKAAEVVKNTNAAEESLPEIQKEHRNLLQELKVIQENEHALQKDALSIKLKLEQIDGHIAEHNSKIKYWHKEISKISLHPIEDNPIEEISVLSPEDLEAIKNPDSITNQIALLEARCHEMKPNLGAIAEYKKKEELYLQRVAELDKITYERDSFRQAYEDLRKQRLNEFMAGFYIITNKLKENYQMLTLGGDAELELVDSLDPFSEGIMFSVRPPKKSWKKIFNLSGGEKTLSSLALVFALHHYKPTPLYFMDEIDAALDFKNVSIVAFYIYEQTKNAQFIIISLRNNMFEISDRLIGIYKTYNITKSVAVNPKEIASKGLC
# Chain of UniProt P29692 (P29692 whole entry): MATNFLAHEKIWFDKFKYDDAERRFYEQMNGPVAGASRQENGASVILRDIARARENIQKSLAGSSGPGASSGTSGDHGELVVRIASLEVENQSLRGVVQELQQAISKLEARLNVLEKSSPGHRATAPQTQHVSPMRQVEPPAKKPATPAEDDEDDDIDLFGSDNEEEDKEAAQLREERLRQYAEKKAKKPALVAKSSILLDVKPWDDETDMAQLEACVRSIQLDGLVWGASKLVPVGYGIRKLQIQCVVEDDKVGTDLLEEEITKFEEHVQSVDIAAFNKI
# Chain of CCT5 (P48643 whole entry): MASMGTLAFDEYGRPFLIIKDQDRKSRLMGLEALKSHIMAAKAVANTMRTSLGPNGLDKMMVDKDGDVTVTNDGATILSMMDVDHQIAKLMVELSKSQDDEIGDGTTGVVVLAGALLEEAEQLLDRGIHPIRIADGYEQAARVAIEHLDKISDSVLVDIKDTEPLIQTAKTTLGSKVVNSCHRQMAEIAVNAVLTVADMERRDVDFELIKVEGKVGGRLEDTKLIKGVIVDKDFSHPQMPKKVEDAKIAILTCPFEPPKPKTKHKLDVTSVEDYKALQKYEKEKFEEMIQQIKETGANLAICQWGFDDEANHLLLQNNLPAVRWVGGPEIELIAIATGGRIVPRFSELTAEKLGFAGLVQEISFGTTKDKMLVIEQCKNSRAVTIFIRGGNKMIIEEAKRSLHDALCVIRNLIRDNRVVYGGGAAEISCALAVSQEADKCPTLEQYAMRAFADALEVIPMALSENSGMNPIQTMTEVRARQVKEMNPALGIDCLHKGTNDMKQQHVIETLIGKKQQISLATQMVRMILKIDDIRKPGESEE
# Chain of PDCD5 (O14737 whole entry): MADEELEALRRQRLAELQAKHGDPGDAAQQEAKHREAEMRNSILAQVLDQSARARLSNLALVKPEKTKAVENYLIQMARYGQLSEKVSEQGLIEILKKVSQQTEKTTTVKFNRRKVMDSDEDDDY
# Chain of UniProt P50990 (P50990 whole entry): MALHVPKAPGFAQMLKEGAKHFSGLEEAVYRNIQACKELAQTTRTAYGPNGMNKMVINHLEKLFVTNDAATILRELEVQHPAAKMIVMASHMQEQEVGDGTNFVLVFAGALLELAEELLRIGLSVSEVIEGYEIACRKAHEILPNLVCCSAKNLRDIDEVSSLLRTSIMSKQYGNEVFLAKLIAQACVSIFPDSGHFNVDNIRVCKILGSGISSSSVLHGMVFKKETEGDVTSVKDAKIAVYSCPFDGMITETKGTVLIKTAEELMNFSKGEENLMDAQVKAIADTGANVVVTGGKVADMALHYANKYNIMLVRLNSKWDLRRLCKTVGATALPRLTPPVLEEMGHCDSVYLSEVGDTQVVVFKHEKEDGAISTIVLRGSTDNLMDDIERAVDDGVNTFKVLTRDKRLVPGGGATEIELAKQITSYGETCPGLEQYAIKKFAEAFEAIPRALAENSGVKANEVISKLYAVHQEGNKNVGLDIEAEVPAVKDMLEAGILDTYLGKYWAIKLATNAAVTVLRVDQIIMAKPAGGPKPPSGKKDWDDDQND
# Chain of EEF1G (P26641 whole entry): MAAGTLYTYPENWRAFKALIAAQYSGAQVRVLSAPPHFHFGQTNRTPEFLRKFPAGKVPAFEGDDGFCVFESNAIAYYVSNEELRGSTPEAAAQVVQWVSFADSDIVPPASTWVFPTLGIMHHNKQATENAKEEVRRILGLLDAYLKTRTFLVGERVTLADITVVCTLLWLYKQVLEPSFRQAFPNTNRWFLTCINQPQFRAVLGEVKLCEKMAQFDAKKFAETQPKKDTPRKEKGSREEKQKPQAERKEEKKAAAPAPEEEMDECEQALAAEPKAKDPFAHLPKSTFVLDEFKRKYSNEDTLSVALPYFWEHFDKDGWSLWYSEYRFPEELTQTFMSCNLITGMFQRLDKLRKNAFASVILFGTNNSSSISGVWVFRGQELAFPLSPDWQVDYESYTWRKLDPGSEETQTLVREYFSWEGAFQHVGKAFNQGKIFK
# Chain of NEFL (P07196 whole entry): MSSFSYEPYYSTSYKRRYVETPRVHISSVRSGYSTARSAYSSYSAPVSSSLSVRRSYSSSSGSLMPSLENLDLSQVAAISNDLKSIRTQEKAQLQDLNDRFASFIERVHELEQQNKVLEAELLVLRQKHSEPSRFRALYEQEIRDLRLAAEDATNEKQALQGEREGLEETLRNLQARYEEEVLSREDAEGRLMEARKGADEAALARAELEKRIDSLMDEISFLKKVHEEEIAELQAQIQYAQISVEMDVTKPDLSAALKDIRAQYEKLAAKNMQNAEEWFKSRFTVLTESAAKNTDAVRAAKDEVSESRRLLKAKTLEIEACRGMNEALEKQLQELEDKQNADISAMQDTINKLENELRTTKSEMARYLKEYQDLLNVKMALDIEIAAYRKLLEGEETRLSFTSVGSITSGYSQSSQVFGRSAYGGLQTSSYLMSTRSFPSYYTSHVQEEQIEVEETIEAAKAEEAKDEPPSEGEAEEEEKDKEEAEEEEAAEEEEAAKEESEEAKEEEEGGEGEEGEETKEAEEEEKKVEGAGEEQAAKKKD
substance,measurement,setting,value
"PPIB, P23284",cross-linked residues,CANX,K116 - K90 and K116 - K127
"CCT5, P48643",cross-linked residues,CCT2,K170 - K135 and K232 - K250 and K265 - K250 and K275 - K263 and K275 - K272 and K392 - K82
"CCT4, P50991",cross-linked residues,CCT2,K21 - K46 and K21 - K176 and K21 - K522 and K55 - K176 and K65 - K522 and K288 - K272 and K531 - K46
"PDCD5, O14737",cross-linked residues,CCT4,K98 - K395 and K110 - K395
same,cross-linked residues,TCP1,K20 - K541 and K98 - K541 and K105 - K532 and K105 - K541
"CCT6A, P40227",cross-linked residues,CCT8,K10 - K440 and K199 - K400 and K377 - K400
"EEF1G, P26641",cross-linked residues,EEF1D,K219 - K17 and K220 - K10 and K220 - K17 and K227 - K17
"H1-4, P10412",cross-linked residues,H1-2,K168 - K178 and K168 - K191
"MCM2, P49736",cross-linked residues,MCM6,K178 - K99 and K178 - K102
"NEFL, P07196",cross-linked residues,NEFM,K128 - K139 and K293 - K307 and K293 - K314
"PHB1, P35232",cross-linked residues,PHB2,K83 - K200 and K128 - K89 and K186 - K97 and K186 - K200 and K202 - K216
"NPM1, P06748",cross-linked residues,RPL22,K202 - K5 and K212 - K5
"EIF4B, P23588",cross-linked residues,RPS11,K6 - K45 and K6 - K144
"RPS3A, P61247",cross-linked residues,SERBP1,K240 - K122 and K249 - K68
"RPS12, P25398",cross-linked residues,SERBP1,K116 - K286 and K116 - K299
"SMC2, O95347",cross-linked residues,SMC4,K580 - K731 and K643 - K680 and K716 - K820 and K750 - K522 and K911 - K1009 and K963 - K1031 and K963 - K1037
"RPS9, P46781",cross-linked residues,SND1,K121 - K386 and K121 - K513
"SRP14, P37108",cross-linked residues,SRP9,K42 - K76 and K74 - K76
"HSP90AB1, P08238",cross-linked residues,STIP1,K435 - K486 and K435 - K530
"XRCC6, P12956",cross-linked residues,XRCC5,K9 - K265 and K114 - K325 and K189 - K603 and K317 - K282 and K539 - K399 and K591 - K144
"YWHAQ, P27348",cross-linked residues,YWHAZ,K9 - K85 and K85 - K9
